# According to PubChem BioAssay AID588342 (National Center for Advancing Translational Sciences (NCATS), 2011):
# Several values for one entry are separate records, joined by “and”; a condition that tells them apart may be missing. Equal entries are not always repeated. The whole screen tested about 360,000 compounds, of which about 25,000 (6.9%) were called active. This list was built around the results that the source calls inconclusive (neither active nor inactive); the mix of calls is not that of the screen. Calls follow the shape of the dose curve; as a rule, active = well fitted inhibition curve with a large enough effect; inconclusive = small, poorly fitted or top-dose-only effect; inactive = flat fitted curve, though single readings scatter. Potencies beside an inconclusive call are fits to weak or partial responses and may not hold up.
# Target: Luciferin 4-monooxygenase (Photinus pyralis) (UniProt P08659)
# Experiment: qHTS profiling assay for firefly luciferase inhibitor/activator using purifed enzyme and Km concentrations of substrates (counterscreen for miR-21 project); also: nearly all actives have a fitted effect of over 55% in size
# Conditions: purified FLuc, luminescence inhibition; series mostly up to 57.5 µM
# Method in brief: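 Purified P. pyralis luciferase, 10 nM final, with Km-level 10 uM D-luciferin and 10 uM ATP in 50 mM Tris acetate pH 7.5, 10 mM Mg acetate, 0.01% Tween-20, 0.05% BSA; 6-point qHTS titration about 60 µM downward; luminescence read.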
# Potency is read from the fitted curve at half-maximal effect; tags tell the direction and shape of the fitted curve.
# Sequence of UniProt P08659 (P08659 whole entry, looked up): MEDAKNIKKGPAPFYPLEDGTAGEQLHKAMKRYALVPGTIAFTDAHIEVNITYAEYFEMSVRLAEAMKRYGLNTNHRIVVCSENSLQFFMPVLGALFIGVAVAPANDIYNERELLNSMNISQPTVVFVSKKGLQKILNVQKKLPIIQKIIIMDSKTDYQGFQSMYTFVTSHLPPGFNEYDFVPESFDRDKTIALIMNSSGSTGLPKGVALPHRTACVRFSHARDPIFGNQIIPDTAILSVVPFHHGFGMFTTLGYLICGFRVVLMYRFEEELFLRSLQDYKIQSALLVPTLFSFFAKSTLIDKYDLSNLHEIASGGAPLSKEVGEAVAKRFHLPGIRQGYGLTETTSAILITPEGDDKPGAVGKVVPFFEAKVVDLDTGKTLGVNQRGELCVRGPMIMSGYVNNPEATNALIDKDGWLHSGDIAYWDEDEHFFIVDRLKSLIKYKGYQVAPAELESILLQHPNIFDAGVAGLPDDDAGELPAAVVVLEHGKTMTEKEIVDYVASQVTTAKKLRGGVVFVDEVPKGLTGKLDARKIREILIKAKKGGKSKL
row,SMILES,Potency
1,CCOC(=O)CC(NS(=O)(=O)Cc1ccccc1)c1ccc(C)cc1 (stereo unspecified),inactive
2,NC(=O)CSc1nnc(SCc2ccc(F)cc2)s1,"inconclusive: 37.9 µM [inhibitor, single point]"
3,O=C(Nc1ccc(CN2CCCCC2)cc1)c1ccc(Br)o1,"inconclusive: 30.1 µM [inhibitor, partial curve, poor fit]"
4,Cn1c(=O)oc2cc(S(=O)(=O)CCC(=O)NCCc3ccc(Cl)cc3)ccc21,inactive
5,CC(C)(C)OC(=O)N1CCC(c2c(C(=O)N3CCCCC3)cnn2-c2ccccc2Cl)CC1,inactive
6,O=C(OCC(=O)N1CCCCC1)c1cc2ccccc2cc1O,active: 23.9 µM
7,O=C(Nc1ccccc1F)Nc1ccccc1OC(F)F,"inconclusive: 23.9 µM [inhibitor, single point]"
8,O=C(Nc1nccs1)c1ccc(CSc2nnnn2-c2ccccc2)cc1,"inconclusive: 16.9 µM [inhibitor, partial curve]"
9,COc1ccc(CN=C(C#N)C2=C(O)c3ccccc3C2=O)cc1,"inconclusive: 23.9 µM [inhibitor, partial curve, poor fit]"
10,O=C(O)/C=C/c1cn(Cc2ccccc2Cl)nc1-c1ccccc1,"inconclusive: 30.1 µM [inhibitor, single point]"
11,COc1ccccc1NC(=O)CN1C(=O)c2ccccc2Sc2ccc(C(=O)N3CCCC3)cc21,inactive
12,C/C=C\C=C\C(=O)Nc1cccc(C2=NOC3(C2)C[C@@H](C(N)=O)N(C(=O)C(c2ccccc2)c2ccccc2)C3)c1 (stereo partly specified),"inconclusive: 19 µM [inhibitor, partial curve]"
13,O=C(O)c1cccc(NC2=C(Cl)C(=O)c3ccccc3C2=O)c1,active: 16.9 µM
14,O=C(O)c1ccc(-c2ccccc2)[nH]1,inactive
15,CC(=O)c1ccc(NC(=O)c2nc(-c3ccccc3)n(-c3ccccc3)n2)cc1,"inconclusive: 21.3 µM [inhibitor, single point]"
16,COc1cc(OC)c(NS(=O)(=O)c2ccc(Cl)c(C(=O)OC(C)C(=O)N3CCCC3)c2)cc1Cl (stereo unspecified),inactive
17,C[C@]12CCC3C(CC[C@H]4CC(O)CC[C@]34C)C1CC/C2=N/O (stereo partly specified),"inconclusive: 37.9 µM [inhibitor, single point]"
18,COC(=O)c1ccccc1NC(=O)c1cc2nc(C3CC3)cc(C(F)(F)F)n2n1,"inconclusive: 16.9 µM [inhibitor, partial curve]"
19,O=C(O)Cc1ccc(C(=O)CSc2ccccc2)s1,"inconclusive: 37.9 µM [inhibitor, single point]"
20,Cc1cc(=O)oc2cc(NC(=O)c3cccc(S(=O)(=O)N(C)C)c3)ccc12,"inconclusive: 1.69 µM [inhibitor, partial curve, poor fit]"
21,Cc1ccccc1C(=O)Nc1ccccc1-c1nnn(CC(=O)Nc2ccc3c(c2)OCCO3)n1,"inconclusive: 19 µM [inhibitor, partial curve, poor fit]"
22,Fc1ccc(-c2csc(=S)[nH]2)cc1,"inconclusive: 37.9 µM [inhibitor, partial curve, poor fit]"
23,Cc1nn(-c2ccccc2)c(C)c1/C=N/NC(=O)c1cc(-c2ccc(Cl)s2)[nH]n1,active: 10.7 µM
24,O=C(N/N=C1/CCSC1)c1cc(Br)ccc1O,"inconclusive: 26.9 µM [inhibitor, single point]"

row,SMILES,Potency
1,CCOC(=O)c1nnn(-c2ccc(OC)cc2)c1N,"inconclusive: 37.9 µM [inhibitor, partial curve, poor fit]"
2,Cc1ccc(C2(c3noc(CN(C)Cc4cccnc4)n3)CCCC2)cc1,inactive
3,CN(C)CCn1c(=O)n(-c2cccc(Cl)c2)c(=O)c2c3c(sc21)CCCCC3,inactive
4,COc1cc(/C=C2/N=C(C3CCCCC3)OC2=O)cc(OC)c1OC,"inconclusive: 30.1 µM [inhibitor, single point]"
5,Cc1cc(S(=O)(=O)Nc2ccc(C(=O)O)cc2)c(C)c(S(=O)(=O)c2ccc(Cl)cc2)c1,"inconclusive: 15.1 µM [inhibitor, partial curve]"
6,CCOc1ccccc1N(C)C(=O)Cn1ncc2c([nH]c3ccc(C)cc32)c1=O,inactive
7,CCOc1ccccc1NC(=O)Nc1cccc(S(N)(=O)=O)c1,inactive
8,Cc1cc(/C=N\NC(=O)COc2cccc3cccnc23)c(C)n1-c1ccccc1,active: 1.35 µM
9,O=C(NN1C(=O)/C(=C/c2cccc(O)c2)SC1=S)c1ccccc1O,"inconclusive: 37.9 µM [inhibitor, single point]"
10,COc1ccccc1C(=O)NCCNc1nc2cc(C)cc(C)c2cc1C#N,inactive
11,Cc1ccc2nc(NCc3ccccc3)c(C=NCc3cccnc3)c(=O)n2c1,"inconclusive: 37.9 µM [inhibitor, single point]"
12,O=C(N/N=C/c1ccccc1O)c1cccc2ccccc12,"inconclusive: 19 µM [inhibitor, partial curve]"
13,COc1ccc(S(=O)(=O)Nc2cc3c(C(=O)OC(C)C)c(C)oc3c3ccccc23)cc1,"inconclusive: 12 µM [inhibitor, partial curve]"
14,CC(CCc1ccccc1)NC(=O)CSc1n[nH]c(-c2ccc(F)cc2)n1 (stereo unspecified),"inconclusive: 13.5 µM [inhibitor, partial curve, poor fit]"
15,COc1c(Cl)cnn(-c2cccc(C)c2)c1=O,inactive
16,CCC1=NN2C(=N)/C(=C/c3cc(C)n(-c4ccccc4)c3C)C(=O)N=C2S1,active: 26.9 µM
17,Fc1ccc(NC(=S)Nc2ccc3nccnc3c2)cc1,"inconclusive: 37.9 µM [inhibitor, single point]"
18,CC(C)OC(=O)c1ccc(NC(=S)NC(=O)c2cncc(Br)c2)cc1,inactive
19,COc1ccc(-c2ccc(CCC(=O)O)n2-c2ccccc2O)cc1,"inconclusive: 26.9 µM [inhibitor, partial curve] and inconclusive: 21.3 µM [inhibitor, single point]"
20,O=C(COC(=O)/C=C/c1cccc(F)c1)Nc1ncccn1,inactive
21,O=C(Cc1ccccc1)NCc1ccc2c(c1)OCO2,active: 7.57 µM
22,COCCN(CCOC)c1nc(-c2ccc(C)cc2)nc2ccccc12,active: 13.5 µM
23,CCOc1ccc(S(=O)(=O)NC2CCCC2)cc1,inactive
24,CN(C)C(=O)c1cc(C(=O)c2ccc(C(F)(F)F)cc2F)c[nH]1,"inconclusive: 26.9 µM [inhibitor, partial curve]"

row,SMILES,Potency
1,Cc1nc(NC(=O)CSc2nnc(-c3ccc4c(c3)OCO4)o2)c(Cl)cc1Cl,"inconclusive: 13.5 µM [inhibitor, partial curve, poor fit]"
2,O=C1N=C(N2CCOCC2)S/C1=C1\C(=O)N(Cc2ccccc2)c2ccc(Br)cc21,"inconclusive: 12 µM [inhibitor, partial curve]"
3,CC(C)Nc1nc(Cl)nc(NCCOc2ccccc2)n1,"inconclusive: 33.8 µM [inhibitor, partial curve, poor fit]"
4,COc1ccc(CCNC(=O)Nc2ccccc2[N+](=O)[O-])cc1,"inconclusive: 26.9 µM [inhibitor, partial curve]"
5,O=C(c1cn(-c2ccccc2)nc1-c1cccc(Br)c1)N1CCOCC1,"inconclusive: 26.9 µM [inhibitor, partial curve]"
6,C=CCn1cccc(C(=O)Nc2ccc(OC)c(Cl)c2)c1=O,active: 19 µM
7,NC(=O)c1cc2ccc(O)cc2oc1=Nc1ccccc1,inactive
8,COc1ccc(Cl)cc1N(C)C(=O)c1cc2c(=O)oc3ccc(C)cc3c2s1,inactive
9,COc1ccc(Cc2nc3c4cnn(-c5ccccc5F)c4ncn3n2)cc1,"inconclusive: 26.9 µM [inhibitor, partial curve]"
10,COC(=O)CNC(=O)/C=C/c1ccc(OC)cc1,"inconclusive: 19 µM [inhibitor, partial curve]"
11,CC(=O)Nc1cccc(NC(=O)c2cc(C)on2)c1,"inconclusive: 16.9 µM [inhibitor, single point]"
12,COCc1cc(=O)n2[nH]cc(-c3ccccc3)c2n1,"inconclusive: 30.1 µM [inhibitor, partial curve, poor fit]"
13,Cc1noc(C)c1N=Nc1ccc(Br)cc1C(=O)O,"inconclusive: 21.3 µM [inhibitor, partial curve]"
14,CN(C(=O)CSc1nnnn1-c1ccc(O)cc1)C1CCS(=O)(=O)C1 (stereo unspecified),inactive
15,Cc1ccc(NS(=O)(=O)c2cc(-c3cnc(C4CC4)o3)ccc2C)cc1Cl,"inconclusive: 19 µM [inhibitor, partial curve, poor fit]"
16,CC(OC(=O)Cc1ccc(Cl)cc1)C(=O)NC1CCCCC1C (stereo unspecified),inactive
17,COc1ccc(C2SCC(=O)N2c2ccc(C)cc2)cc1 (stereo unspecified),inactive
18,CCCOc1ccc(CN2C(=O)C(=O)c3cccc(C)c32)cc1,"inconclusive: 37.9 µM [inhibitor, partial curve, poor fit]"
19,COc1ccc(CC(=O)O/N=C(\N)c2ccccn2)cc1,active: 12 µM
20,O=C(CCc1nnc(CCCc2ccccc2)o1)NCCc1ccco1,"inconclusive: 23.9 µM [inhibitor, single point]"
21,CCOC(=O)Cc1csc(NC(=O)Nc2ccc(OC(F)(F)F)cc2)n1,active: 2.39 µM
22,CCOc1ccc(-n2ccnc(SCC(=O)Nc3cccc(OC)c3)c2=O)cc1,"inconclusive: 33.8 µM [inhibitor, partial curve, poor fit]"
23,C=CCNC(=O)COC(=O)C1CCN(S(=O)(=O)c2ccc3c(c2)OCCO3)CC1,"inconclusive: 15.1 µM [inhibitor, partial curve, poor fit]"
